PubChem BioAssay AID2147 (National Center for Advancing Translational Sciences (NCATS), 2009)
In all, about 230,000 compounds went through this assay and about 3,600 (1.6%) were called active. Inconclusive results, whose numbers are uncertain, are shown with a selection of clear calls. Calls come from the whole dose curve; as a rule, active = well fitted inhibition curve with a large enough effect (not every such curve was filed as active); inconclusive = small, poorly fitted or top-dose-only effect, or another doubt; inactive = no such curve, though single readings can be large or run the other way. Potencies beside an inconclusive call are fits to weak or partial responses and may not hold up.

biological target: Lysine-specific demethylase 4E (Homo sapiens) (UniProt B2RXH2); experiment: qHTS Assay for Inhibitors of Human Jumonji Domain Containing 2E (JMJD2E); conditions: JMJD2E catalytic domain, FDH-coupled NADH fluorescence (FDH is formaldehyde dehydrogenase); series mostly up to 57.1 µM; activity change, negative = inhibition: at the top concentration
Note: nearly all actives have a fitted effect of over 50% in size.
Potency is the fitted concentration of half-maximal effect; tags give direction and shape of the fitted curve.
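Throughout, for activity change, negative = inhibition: 0% = wells with enzyme and -100% = buffer wells without enzyme.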

Chain of UniProt B2RXH2 (B2RXH2 whole entry, looked up, the tested form may be a part): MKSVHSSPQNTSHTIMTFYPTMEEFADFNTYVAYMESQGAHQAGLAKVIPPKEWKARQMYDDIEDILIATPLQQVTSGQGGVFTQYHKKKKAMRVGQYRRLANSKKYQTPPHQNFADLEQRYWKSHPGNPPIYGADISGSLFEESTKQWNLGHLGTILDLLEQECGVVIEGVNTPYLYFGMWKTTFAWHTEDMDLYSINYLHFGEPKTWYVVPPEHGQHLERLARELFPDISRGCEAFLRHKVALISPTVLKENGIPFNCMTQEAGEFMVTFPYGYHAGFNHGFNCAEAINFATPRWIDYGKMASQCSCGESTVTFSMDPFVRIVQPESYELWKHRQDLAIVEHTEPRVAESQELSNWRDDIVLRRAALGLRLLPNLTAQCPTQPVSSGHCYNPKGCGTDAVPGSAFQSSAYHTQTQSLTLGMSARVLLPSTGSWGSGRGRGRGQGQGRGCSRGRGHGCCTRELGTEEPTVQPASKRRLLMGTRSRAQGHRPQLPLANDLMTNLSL

Compound | Potency | activity change, negative = inhibition
COC(=O)c1ccccc1NC(=O)c1cccc(COc2ccccc2Cl)c1 | inconclusive: 31.6 µM [inhibitor, single point] | –
O=C1NC(c2ccc3c(c2)OCO3)Oc2ccccc21 (stereo not drawn) | inconclusive: 28.2 µM [inhibitor, partial curve] | –
CCOc1ccc(C(=O)NCc2ccco2)cc1 | – | inactive: 3.51%
CCOC(=O)c1ccccc1NC(=O)CCNC(=O)Cn1cnc2ccccc2c1=O | inconclusive: 31.6 µM [inhibitor, single point] | –
CN(C)c1ccc(SC#N)cc1 | – | inactive: 6.61%
Cc1cc(N/N=C2\CC(C)CC(C)(C)C2)nc2ccccc12 (stereo not drawn) | inconclusive: 31.6 µM [inhibitor, single point] | –
O=c1c2sc3nc(N4CCOCC4)c4c(c3c2ncn1-c1ccccc1)CCCC4 | inconclusive: 28.2 µM [inhibitor, partial curve] | –
COc1ccc(Cl)cc1NC(=O)C(=O)NC1CCCCCC1 | – | inactive: -0.719%
COc1ccc(/C=C/c2cc(C(F)(F)F)[nH]c(=O)n2)cc1OC | inconclusive: 28.2 µM [inhibitor, partial curve] | –
CCOc1ccc2nc(SCC(=O)Nc3ccc4c(c3)OCO4)sc2c1 | – | inactive: 4.55%
CCOc1ccc(-n2c(SCC(=O)Nc3ccc(CC)cc3)nc3n[nH]c(C)c3c2=N)cc1 | inconclusive: 25.1 µM [inhibitor, partial curve] | –
C/C(=N\NC(=O)c1ccc(CSc2cccc3cccnc23)cc1)C1CCCCC1 | inconclusive: 31.6 µM [inhibitor, partial curve] | –
Cc1ccc(-c2nn(-c3ccccc3)cc2NC(=O)c2ccccc2)cc1 | inconclusive: 31.6 µM [inhibitor, single point] | –
Cc1c(N2C(=O)/C(=C\C3CC=CCC3)SC2=S)c(=O)n(-c2ccccc2)n1C (stereo not drawn) | inconclusive: 35.5 µM [inhibitor, single point] | –
CC([NH2+][O-])C(C)(C)NO (stereo not drawn) | – | inactive: 2.93%
NC(=O)N/N=C/c1c(O)ccc2oc3c(c12)CCCC3 | active: 28.2 µM | –
C=CCOc1ccc(CNc2nn[nH]n2)cc1OC | – | inactive: -1.67%
O=C(CSc1ccc(-c2ccco2)nn1)N1CCCCC1 | inconclusive: 20 µM [inhibitor, partial curve] | –
COc1ccc(OC)c(NC(=O)Nc2cccc3ccccc23)c1 | inconclusive: 31.6 µM [inhibitor, single point] | –
CCC(=O)N1CCN(c2nc3ccccc3s2)CC1 | – | inactive: -1.11%
CCOC(=O)C(=CNc1cccc(N)n1)C(=O)OCC | inconclusive: 39.8 µM [inhibitor, single point] | –
Cc1nc(-c2ccc(C(=O)Nc3ccccc3F)cc2)cs1 | inconclusive: 39.8 µM [inhibitor, single point] | –
N#CC1=C(N)SC(N)=C(C#N)C1c1ccc(C(F)(F)F)cc1 | active: 12.6 µM | –
COc1ccc(CN2C(=O)c3cccnc3C2Nc2ccc(C)cc2)cc1 (stereo not drawn) | inconclusive: 35.5 µM [inhibitor, partial curve, poor fit] | –

Compound | Potency | activity change, negative = inhibition
COc1cccc2c(=O)c(C(=O)O)c[nH]c12 | inconclusive: 28.2 µM [inhibitor, partial curve] | –
CCN(CC)C(=O)CN(c1cc2c(cc1OC)oc1ccccc12)S(=O)(=O)c1ccccc1 | inconclusive: 39.8 µM [inhibitor, single point] | –
O=C(COC(=O)c1ccc2ccccc2n1)NCc1ccccc1 | – | inactive: -0.831%
CC(=O)Nc1ccc(NC(=O)Cn2nc([N+](=O)[O-])c(Br)c2C)cc1 | – | inactive: 9.3%
S=C(c1cccs1)N1CCCC1 | – | inactive: -0.886%
COc1cc(/C=C/C(=O)OCC(=O)NC(=O)NC23CC4CC(CC(C4)C2)C3)ccc1OCC#N | inconclusive: 35.5 µM [inhibitor, single point] | –
CC1CCCC(NC(=O)COC(=O)CCC2CCCC2)C1C (stereo not drawn) | – | inactive: 0.497%
CC(C)(C)NC(=S)NCc1ccco1 | inconclusive: 25.1 µM [inhibitor, single point] | –
O=C(COc1cccc2ccccc12)N1CCN(c2ccccn2)CC1 | inconclusive: 31.6 µM [inhibitor, single point] | –
CCC1(C)Cc2c(c(=O)n(-c3ccccc3)c3ncnc(N)c23)CO1 (stereo not drawn) | inconclusive: 3.98 µM [inhibitor, single point] | –
O=C(COc1ccccc1-c1ccccc1)N/N=C/c1ccc2ccccc2c1 | inconclusive: 35.5 µM [inhibitor, single point] | –
CCOC(=O)c1sc(NC(=O)CN2C(=O)NC3(CCCCCCC3)C2=O)c(C(=O)OCC)c1C | inconclusive: 39.8 µM [inhibitor, single point] | –
Nc1cc(N)cc(-c2nc3ccccc3[nH]2)c1 | – | inactive: -24%
O=C(COc1ccccc1Cl)N1CCN(c2ncccn2)CC1 | inconclusive: 31.6 µM [inhibitor, partial curve] | –
CCOc1cccc(-c2nnc(SCC(=O)Nc3ccc(OC)c(OC)c3)n2N)c1 | – | inactive: 5.65%
CC(=O)Nc1cc[n+](C(C)C(=O)c2ccc(Br)cc2)cc1 (stereo not drawn) | – | inactive: -0.489%
O=S(=O)(c1ccccc1)N1CN(Cc2ccc(F)cc2)c2nc3ccccc3nc21 | inconclusive: 39.8 µM [inhibitor, single point] | –
COc1ccc(-c2cc(C(=O)NCC3CCCO3)c3ccccc3n2)cc1 (stereo not drawn) | inconclusive: 28.2 µM [inhibitor, partial curve] | –
Cn1c(SCC(=O)N2CCCCC2)nnc1-c1ccc(S(=O)(=O)N2CCOCC2)cc1 | inconclusive: 28.2 µM [inhibitor, partial curve] | –
COCCNCCCCOc1ccccc1-c1ccccc1 | inconclusive: 22.4 µM [inhibitor, single point] | –
O=C(Nc1ccc(F)cc1F)c1ccc(-n2cncn2)nc1 | inconclusive: 39.8 µM [inhibitor, single point] | –
CCCCNc1oc(-c2ccc(OC)cc2)nc1S(=O)(=O)c1ccccc1 | – | inactive: -20.3%
CCCCNC(=O)CCC(=O)Nc1ccc2nc(N3CCC(C)CC3)cc(C)c2c1 | inconclusive: 28.2 µM [inhibitor, partial curve] | –
Cc1ccc(-c2cccc(NC(=O)C3C4C=CC(C4)C3C(=O)O)c2)o1 (stereo not drawn) | inconclusive: 28.2 µM [inhibitor, partial curve] | –
